From the supplement of paper PMC11417369
The other results are listed elsewhere or left out.

system: PfHDP1 homeodomain (GST-tagged); test: gcPBM binding intensity (ln(normalized median fluorescence intensity)); higher = stronger DNA binding
Summary of the method: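 The highest Masliner-normalised natural-log median intensity across replicate spots of either probe orientation is reported as binding intensity. GST-tagged P. falciparum DNA-binding domains expressed in E. coli were applied for 1 h to an Agilent 4 × 180k array of primer-extended double-stranded 36-bp intergenic genomic probes plus negative controls, and bound protein was detected with Alexa488 anti-GST antibody and scanned at 488 nm.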

Sequence	gcPBM binding intensity (ln)
CACACGTATAAATATACACACTAAAATACACGCACA [CACACA_site7876]	7.23
TTGTATAATTTAACAAGTACAAAATAAATTTGTATA [XGTACX_site5505]	6.06
TTCAATTAAAAAATATGTACGCATAAATTGATATAT [XGTACX_site4289]	6.54
TTTTATGGAAAGTGTTGTACATATTTTTGTATATGT [XGTACX_site7356]	6.37
AAAAGAGAAACATTTACACACAAATATAGATATATG [CACACA_site1027]	6.38
ATAGTATACGGACACACACACACACCGATATATATA [CACACA_site5032]	6.92
ATATATATATATATATGTACATATTTATTTATTTAT [XGTACX_site5161]	9.27
AGCACAGACTAATAAACACACACATATATATATATA [CACACA_site8021]	9.26
CTCATTCTTTTTTGATGTACTTTTTTTTTTTAAGTT [XGTACX_site2875]	6.63
TAATACAAAAAGAAAAGTACATGTTAATTATTATTT [XGTACX_site2196]	6.2
AACATATAAATGATATGTACACACATTTATATATAT [XGTACX_site7364]	7.07
CAAATTAAATATTATGCATGTACCAAACATCCTACC [TGCATGCA_site35]	6.46
TTTTTTTTTTTTTTTTTGCAATATATTTTAAAAAAG [CACACA_negctrl_site25]	7.07
TTTTTTTTTTTTTTTTTTTTTTGTGAAACTAAGTAA [CACACA_negctrl_site273]	6.09
GGAAGAATATATAGGACACACATACAATAATAAATA [CACACA_site6124]	6.67
AACTTCTTTTTTATAACACACAAAATATAAATACAA [CACACA_site4313]	6.69
CTTTTTTTAGTTAGGTGTACAATTTGTTATTATTAG [XGTACX_site1507]	6.9
TATAACAGGAATTATATATATATATATATATATTAT [CACACA_negctrl_site911]	7.14
TTTTTTTTTTTTTTTTGTACATATTTCTTATAAGTG [XGTACX_site6459]	6.25
TTTAATATGTATTTTTTTTTTTTTTTTTTTTTTTTT [XGTACX_negctrl_site440]	7.31
AATACTCAAAAGAATCGTACAAACAACACTCCCACG [XGTACX_site7564]	6.81
TTACATGTAAAAGGTACACACATTAGATATACAAAT [CACACA_site6651]	6.88

Sequence	gcPBM binding intensity (ln)
TATCATACCTTTTAATGTACACACATTTCTTTTTTG [XGTACX_site1655]	6.94
TGGAGGTCAGTTCACAGTACCCAGAAACTCTACGAG [XGTACX_site2007]	5.8
TATATATATATATATTGTACATATTAATATTAGAAA [XGTACX_site8923]	9.12
ATTACCATATAAAACACACAAACATACATACATACA [CACACA_site3729]	7.57
TGAAATAACCCATGTGCATGCACTTCAATAACTGAA [TGCATGCA_site1041]	9.44
TATAAATTAAAATCAGTGCATATTTTGAAAAACCTC	8.78
TATAAATTATAAATTGCACACATATTTTTATATTTA [CACACA_site8974]	10.1
ATATTATTATTAGTTTCACACATTTAATGAAACTAA [CACACA_site5677]	6.55
GTTATAATTTAGTCAAGTACATGCGTATGTATATTC [XGTACX_site3763]	6.44
TATACAGATAAATACACACACATATATATATATATA [CACACA_site4178]	9.31
ATATATATATGTGTGTGTACATATGATTTCGCACTT [XGTACX_site4449]	8.65
TAATATATATTATATACACACATATATATATATATA [CACACA_site428]	9.27
CACAGAAATATTCTTATACACACTGTTCTTATATTC [CACACA_site288]	6.56
TGTATGTTAAATACAACACACAAAAAAAAACAAGTT [CACACA_site4324]	6.41
TACCACTTTCGAAGTAGTACATGGCTTTTTTTTTTT [XGTACX_site8379]	6.11
TATAACTTTTTTAATACACACAAATATTTATTTATA [CACACA_site7425]	6.64
GGCATACACGAACACACACACACACGCACATATATA [CACACA_site6426]	8.13
TTTTACGTGAGTAATACACACATATAAGTTTATATA [CACACA_site4120]	6.67
TTTTTGTATTCTCCGGACTACATTATGTTGTAAATG [CACACA_negctrl_site691]	6.69
GTAATAAAAAATTAATGTACTTTATATAATATATTA [XGTACX_site5935]	6.09
GTATAAAAATTTAGGAGTACAATATATTTATAATAT [XGTACX_site2127]	6.5
TCTAATTTAAAATACACACACATATCTATAATATAT [CACACA_site7029]	6.66

Sequence	gcPBM binding intensity (ln)
TATTTGTAAAGACATGCATGGTACTTTTAAAACATA [TGCATGCA_site7]	6.52
TGTAGATAAAATAAACGTACGTATTGATTTTTTTCA [XGTACX_site1610]	6.04
CAGTTGTTAATTTGTGTGCACCAAATATTATACATA	10.5
ATAATTCCATAAAATAGACACACGAATGTATAATAT [CACACA_site477]	6.54
ACATATGAATATAATACACACTTGTATTCTTAATAT [CACACA_site5085]	6.43
TTAATATTTGTTCTGATCCTTTTATTCAACTTTTTT [CACACA_negctrl_site536]	6.57
TGGTAATACCCATACACACACACATACACATATATA [CACACA_site8877]	7.04
TTTTCTTTCTTGTTTCGTATATTATAAAAAAAAAAG [CACACA_negctrl_site854]	6.52
TATTTGGGTATTTTTACACACATTAAAATATATATA [CACACA_site5800]	6.21
GTATTTTGCATAAATGCATGTAAATATATACCTACC [TGCATGCA_site957]	7.28
CCATATGATATATATTGTACATTATATATTATTTCT [XGTACX_site1697]	6.61
TATGTTGTTTATTTAGTGCATATTTAAATATTATAA [GTGCAC_site9601]	8.87
AATGACATTCTTACACGTACAAAATAAAAAATAAAA [XGTACX_site6932]	6.75
ATTTATTTTATAATATATAAATGATATATCTTATTA [CACACA_negctrl_site66]	6.18
TATATATTATATTCATGTACGTAAAAATTTTGAATA [XGTACX_site6734]	6.69
TGTACAGTAAATACAACACACATTTGTATAAATATA [CACACA_site4705]	6.54
TATTGTATAAAAATAACATGCAATCCTTATACTGCT [TGCATGCA_site345]	6.34
GGACTTTATAAAAATGGTACACGCAATTCTATAATC [XGTACX_site6515]	6.3
TAATATATAAAAAGATGTACTTTTGCAAGTTCCTTT [XGTACX_site8519]	6.41
ATATATATATATGTATGTACGTATGTATGTATGAAT [XGTACX_site4857]	9.01
GGTACATACAAACACACACACAAAAAAAAAAAAATA [CACACA_site1577]	6.46
ATATTTTCCCTTTATAGGAGCACAAAAATTAAATGT [CACACA_negctrl_site1114]	7.2

Sequence	gcPBM binding intensity (ln)
CAGATAAGATTTTGTGGTACTATTTATTAAATTAGA [XGTACX_site2644]	6.06
ATTCGGATCTATAAGTGTACACAATCTAGCGAAAAG [XGTACX_site3088]	6.47
TATACGCAGAAACACACACACAAAAAAAAAAAAAAA [CACACA_site427]	6.27
TATAATAAATCGAACTGTACATATATATATATATAT [XGTACX_site7097]	9.32
ATTTTTTTTGCTAAGTGTACACAAATGTTTATTAAT [XGTACX_site7440]	7.56
CATATATAAATATATACACACATATATATATATATA [CACACA_site1365]	9.26
TTTATTCAAATATAATGTACTTTCTACAAATTCAAT [XGTACX_site8119]	6.06
GCTAATAATAAAAGCATAATGAACAAACACCCAGTA [CACACA_negctrl_site806]	7.22
TTATATAACACGGGGAGGACACAAGAAATAAAGAGC [XGTACX_site2148]	6.68
TTTTTCTGTTTTTATAGCCTTCTCATAATACATAAA [TGCATGCA_negctrl_site355]	6.6
AATATGTAAATATGGGTGCTTTAAAATATATTCATT [GTGCAC_site9583]	6.18
TTCCAATGATAAAATTGTACTTGAAGAAAATTTTTT [XGTACX_site4607]	6.04
ATTCACAAATATATGGTGCATAATATATATATATAT [GTGCAC_site9674]	10.5
AACAATTATTGTAATGCATGCACTGAATATAGAAAG [TGCATGCA_site889]	9.68
ATATATATATGGAAGTGTACTTATATAGCATACTAG [XGTACX_site5130]	8.37
TACGTATCATAATTTTATTTTATATATATTCACAAA [XGTACX_negctrl_site144]	6.31
AGCGTATAACATATGACACACACACCGACATACACA [CACACA_site8532]	6.75
AAATTTTTATAATTATCACACATTGAATTGTGGTCT [CACACA_site4343]	6.49
GATATGTGTATAATATGTACATATATATATATATAT [XGTACX_site6531]	9.39
ATTTCCCATACACGTTGTACAATGTAGAGAAAGTAT [XGTACX_site4586]	6.77
CTATTTAAAATATGAACACACATTATTTGTTTTAGA [CACACA_site2713]	6.2
AATATAGGAATATGCACACATATATACCTACATACA [CACACA_site4939]	9.96
